From the supplement of paper PMC12217912
Some of the results follow. Sequences were assembled here from the parent chain. Values near 0.05 are background.

B1: TEV protease; numbered along this chain (parent)
chain: MGESLFKGPRDYNPISSSICHLTNESDGHTTSLYGIGFGPFIITNKHLFRRNNGTLVVQSLHGVFKVKDTTTLQQHLVDGRDMIIIRMPKDFPPFPQKLKFREPQREERICLVTTNFQTKSMSSMVSDTSCTFPSGDGIFWKHWIQTKDGQCGSPLVSTRDGFIVGIHSASNFTNTNNYFTSVPKNFMELLTNQEAQQWVSGWRLNADSVLWGGHKVFMVKPEEPFQPVKEATQL

Variants of: B1
Test: raw area under fraction-flipped curve 0-4 h after induction (AUC4h, not background-subtracted), DNA-recorder readout of cleavage of the substrate (dimensionless); higher = more cleavage of the substrate by the protease variant
Conditions: temperature: 34 °C; time window: 0-4 h after rhamnose induction
Method: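 In vivo DNA recorder in E. coli TOP10(DE3) ΔrhaA at 34 °C. Each TEVp single-site mutant (parent TEVp 0) is paired with a single-site variant of the 7-mer TEVs (canonical ENLYFQ|S). The substrate sits between flexible linkers in a Bxb1-sfGFP-TEVs-SsrA fusion, so cleavage stabilises Bxb1 and speeds flipping of a recombination array, read by NGS. The value is the raw area under the fraction-flipped curve over 0-4 h after rhamnose induction (AUC4h), with ≥20 reads per time point. It is not background-subtracted; inactive controls average about 0.047.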
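Further: Bxb1 expression induced with 0.2% (w/v) L-rhamnose at OD600 near 0.5, cultures sampled hourly, flipped fraction per protease–substrate barcode pair counted by paired-end Illumina sequencing.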

| Variant | area with substrate ENLYFQA | area with substrate ENLYFQC | area with substrate ENLYFQE | area with substrate ENLYFQF | area with substrate ENLYFQG | area with substrate ENLYFQH | area with substrate ENLYFQI | area with substrate ENLYFQK | area with substrate ENLYFQL | area with substrate ENLYFQM | area with substrate ENLYFQN | area with substrate ENLYFQP | area with substrate ENLYFQQ | area with substrate ENLYFQR | area with substrate ENLYFQS | area with substrate ENLYFQT | area with substrate ENLYFQV | area with substrate ENLYFQW | area with substrate ENLYFQY | area with substrate ENLYFQD |
| --- | --- | --- | --- | --- | --- | --- | --- | --- | --- | --- | --- | --- | --- | --- | --- | --- | --- | --- | --- | --- |
| MGESLFKGPRLYNPISSSICHLTNESDGHTTSLYGIGFGPFIITNKHLFRRNNGTLVVQSLHGVFKVKDTTTLQQHLVDGRDMIIIRMPKDFPPFPQKLKFREPQREERICLVTTNFQTKSMSSMVSDTSCTFPSGDGIFWKHWIQTKDGQCGSPLVSTRDGFIVGIHSASNFTNTNNYFTSVPKNFMELLTNQEAQQWVSGWRLNADSVLWGGHKVFMVKPEEPFQPVKEATQL [D11L] | 0.0717 | 0.0702 | 0.0658 | 0.0573 | 0.0804 | 0.0666 | 0.0633 | 0.0916 | 0.0637 | 0.0671 | 0.0726 | 0.0632 | 0.0656 | 0.0617 | 0.0809 | 0.0657 | 0.0665 | 0.0629 | 0.0647 |  |
| MGESLFKGPRQYNPISSSICHLTNESDGHTTSLYGIGFGPFIITNKHLFRRNNGTLVVQSLHGVFKVKDTTTLQQHLVDGRDMIIIRMPKDFPPFPQKLKFREPQREERICLVTTNFQTKSMSSMVSDTSCTFPSGDGIFWKHWIQTKDGQCGSPLVSTRDGFIVGIHSASNFTNTNNYFTSVPKNFMELLTNQEAQQWVSGWRLNADSVLWGGHKVFMVKPEEPFQPVKEATQL [D11Q] | 0.0955 | 0.0837 |  | 0.0807 | 0.0973 | 0.0695 | 0.0649 | 0.068 | 0.069 | 0.0794 | 0.0727 | 0.0739 |  | 0.0591 | 0.0917 | 0.0601 | 0.0562 |  | 0.0764 |  |
| MGESLFKGPRSYNPISSSICHLTNESDGHTTSLYGIGFGPFIITNKHLFRRNNGTLVVQSLHGVFKVKDTTTLQQHLVDGRDMIIIRMPKDFPPFPQKLKFREPQREERICLVTTNFQTKSMSSMVSDTSCTFPSGDGIFWKHWIQTKDGQCGSPLVSTRDGFIVGIHSASNFTNTNNYFTSVPKNFMELLTNQEAQQWVSGWRLNADSVLWGGHKVFMVKPEEPFQPVKEATQL [D11S] | 0.108 | 0.124 | 0.0579 | 0.075 | 0.07 | 0.0963 | 0.0558 | 0.0664 | 0.0628 | 0.117 | 0.0764 | 0.0537 |  | 0.0648 | 0.108 |  | 0.0619 | 0.0591 | 0.0941 | 0.071 |
| MGESLFKGPRDWNPISSSICHLTNESDGHTTSLYGIGFGPFIITNKHLFRRNNGTLVVQSLHGVFKVKDTTTLQQHLVDGRDMIIIRMPKDFPPFPQKLKFREPQREERICLVTTNFQTKSMSSMVSDTSCTFPSGDGIFWKHWIQTKDGQCGSPLVSTRDGFIVGIHSASNFTNTNNYFTSVPKNFMELLTNQEAQQWVSGWRLNADSVLWGGHKVFMVKPEEPFQPVKEATQL [Y12W] | 0.0958 | 0.112 | 0.0718 |  | 0.0965 |  | 0.063 | 0.065 | 0.0573 | 0.0839 | 0.0747 | 0.0634 |  | 0.0614 | 0.0977 | 0.0612 | 0.0587 | 0.0644 | 0.0601 |  |
| MGESLFKGPRDYKPISSSICHLTNESDGHTTSLYGIGFGPFIITNKHLFRRNNGTLVVQSLHGVFKVKDTTTLQQHLVDGRDMIIIRMPKDFPPFPQKLKFREPQREERICLVTTNFQTKSMSSMVSDTSCTFPSGDGIFWKHWIQTKDGQCGSPLVSTRDGFIVGIHSASNFTNTNNYFTSVPKNFMELLTNQEAQQWVSGWRLNADSVLWGGHKVFMVKPEEPFQPVKEATQL [N13K] | 0.093 | 0.115 |  | 0.0792 | 0.0972 | 0.105 | 0.0546 | 0.0583 | 0.0565 | 0.087 | 0.07 |  | 0.0389 | 0.055 | 0.0932 | 0.07 |  | 0.0621 | 0.0667 | 0.0588 |
| MGESLFKGPRDYRPISSSICHLTNESDGHTTSLYGIGFGPFIITNKHLFRRNNGTLVVQSLHGVFKVKDTTTLQQHLVDGRDMIIIRMPKDFPPFPQKLKFREPQREERICLVTTNFQTKSMSSMVSDTSCTFPSGDGIFWKHWIQTKDGQCGSPLVSTRDGFIVGIHSASNFTNTNNYFTSVPKNFMELLTNQEAQQWVSGWRLNADSVLWGGHKVFMVKPEEPFQPVKEATQL [N13R] | 0.102 | 0.12 | 0.062 | 0.0858 | 0.103 | 0.101 | 0.0674 | 0.0615 | 0.0701 | 0.11 | 0.089 | 0.0624 | 0.05 | 0.0669 | 0.113 | 0.0671 |  | 0.0626 | 0.0738 |  |
| MGESLFKGPRDYNCISSSICHLTNESDGHTTSLYGIGFGPFIITNKHLFRRNNGTLVVQSLHGVFKVKDTTTLQQHLVDGRDMIIIRMPKDFPPFPQKLKFREPQREERICLVTTNFQTKSMSSMVSDTSCTFPSGDGIFWKHWIQTKDGQCGSPLVSTRDGFIVGIHSASNFTNTNNYFTSVPKNFMELLTNQEAQQWVSGWRLNADSVLWGGHKVFMVKPEEPFQPVKEATQL [P14C] | 0.107 | 0.077 | 0.0688 | 0.0599 | 0.0982 | 0.068 | 0.0653 | 0.0677 | 0.0496 | 0.0875 | 0.0608 | 0.0574 | 0.0691 | 0.055 | 0.0955 | 0.0535 | 0.0602 | 0.0622 | 0.0679 |  |
| MGESLFKGPRDYNWISSSICHLTNESDGHTTSLYGIGFGPFIITNKHLFRRNNGTLVVQSLHGVFKVKDTTTLQQHLVDGRDMIIIRMPKDFPPFPQKLKFREPQREERICLVTTNFQTKSMSSMVSDTSCTFPSGDGIFWKHWIQTKDGQCGSPLVSTRDGFIVGIHSASNFTNTNNYFTSVPKNFMELLTNQEAQQWVSGWRLNADSVLWGGHKVFMVKPEEPFQPVKEATQL [P14W] | 0.0712 | 0.124 |  | 0.0779 | 0.0856 | 0.115 | 0.0667 | 0.0561 | 0.0605 | 0.078 | 0.0823 | 0.0658 | 0.0622 | 0.0597 | 0.101 | 0.0722 | 0.0636 |  | 0.08 | 0.0711 |
